Data: the supplement of paper PMC7335073
In all, about 4,100 sequences were measured (“relative CpG methylation activity (normalised to average over all NNNCGNNN flanks)”: median about 0.87, highest 2% from about 2.4 on). The list shows a part of the results.

Biological target: DNMT3A catalytic domain (mouse) (UniProt O88508)
Test: relative CpG methylation activity (normalised to average over all NNNCGNNN flanks) (relative (1 = mean)); higher = more methylation of the central CpG
Conditions: system: in vitro, murine catalytic domain; CpG state: hemimethylated substrate pool; residues: 608-908
Summary of the method: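 For Illumina sequencing, DNA was processed by proteinase K, BsaI-HFv2 digestion, hairpin ligation, bisulfite conversion and two-step PCR after methylation by murine DNMT3A or DNMT3B catalytic domain. The methylation reaction contained 0.8 mM S-adenosyl-L-methionine in HEPES pH 7.5 buffer and ran at 37 °C for 60 min on pooled dsDNA substrates with a central CpG inside 10 random flanking nucleotides. Relative methylation activity was computed as the average methylation of each flanking context divided by the mean over all contexts. Contexts covered three flanking bases per side, and there were two independent repeats per experiment.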

Point of comparison: TAGCGTAC, “relative CpG methylation activity” value 0.434. Against it:
- TGGCGGTC — higher, 0.536
- ACGCGATT — higher, 0.863
- CGTCGTAG — lower, 0.312
- GGACGTAA — higher, 1.02
- AGGCGCTT — higher, 1.19
- CATCGCTA — higher, 0.886
- GCTCGTCA — higher, 1.5
- GCGCGCTT — higher, 1.52
- CCACGATG — higher, 0.724
- GTGCGGTA — higher, 1
- CTGCGCCA — higher, 2
- TCACGGGA — higher, 1
- CATCGCAA — higher, 0.819
- ACACGACT — higher, 1.48
- GGACGACG — higher, 0.584
- CTACGCGA — higher, 1.97
- TTCCGTTA — higher, 1.63
- AAGCGAGC — higher, 0.914
- TTGCGGCC — higher, 1.4
- CCACGCAG — higher, 0.809
- ATGCGATC — higher, 2.09
- TCGCGGCA — higher, 0.811
- CGGCGAAT — lower, 0.409
- AAACGTTC — higher, 0.696
- GGACGACC — higher, 0.541
- CCGCGACC — higher, 1.31
- CACCGCCT — higher, 2.05
- ATGCGATA — higher, 1.27
- ATACGCCT — higher, 2.76
- ATGCGAGG — higher, 1.14
- AATCGTAA — higher, 0.534
- GTCCGACG — higher, 1.59
- ATACGGGT — higher, 1.42
- CAACGAGT — higher, 0.788
- ATGCGCTG — higher, 1.96
- CATCGTTG — lower, 0.208
- ACACGCAT — higher, 1.53
- TCCCGGCG — lower, 0.385
- GAACGGCC — higher, 1.34
- ATGCGTTC — higher, 1.5
- CAGCGGCG — higher, 0.514
- CGCCGCAA — higher, 0.839
- GGGCGCTG — higher, 1.55
- ATTCGGAA — lower, 0.353
- ATTCGGGG — lower, 0.25
- TAACGCAC — higher, 0.937
- CGCCGTGT — lower, 0.187
- CTACGCGG — higher, 0.702
- ACTCGGTG — lower, 0.33
- ACACGGAG — higher, 0.745
- GTTCGTTC — higher, 1.53
- TCGCGACA — higher, 1.09
- GTTCGCTA — higher, 1.15
- TCCCGTAC — higher, 0.784
- CTGCGGTT — higher, 1.22
- TCGCGCGC — higher, 0.817
- TCGCGAGA — higher, 0.575
- GTTCGGAG — lower, 0.25
- CGTCGTGT — lower, 0.338
- ACGCGCCA — higher, 1.48
- TTGCGCTT — higher, 2.22
- GTTCGTTG — lower, 0.427
- CGACGGTG — lower, 0.333
- TGTCGAAC — higher, 0.773
- AGTCGGAA — higher, 0.497
- TGGCGAAC — higher, 0.788
- CTACGATA — higher, 1.67
- TGTCGCGC — higher, 0.58
- CAACGCGG — lower, 0.31
- GTACGAGG — higher, 0.909
- AGGCGAGT — higher, 0.529
- CTGCGATT — higher, 1.09
- CGACGGTC — higher, 0.969
- TCGCGTTA — higher, 0.929
- GGGCGTAA — higher, 0.636
- ACTCGACT — higher, 0.791
- CAACGTAA — higher, 1.1
- GCTCGGCT — higher, 0.732
- ATACGTAC — higher, 1.88
- CGACGTTT — lower, 0.19
- TTTCGTGC — higher, 0.815
- GTACGTCG — higher, 1.85
- TTCCGAGG — higher, 1.51
- TCGCGTCG — higher, 1.35
- CTTCGCAA — higher, 1.52
- ATCCGTAT — higher, 0.922
- TGGCGAGA — higher, 0.521
- GGGCGAGC — higher, 1.52
- AGGCGCAG — lower, 0.331
- GAGCGCAT — higher, 0.683
- GACCGCTA — higher, 0.986
- ATACGGTC — higher, 2.39
- AAGCGAGG — lower, 0.24
- GATCGAGA — lower, 0.292
- TTCCGAAT — higher, 1.95
- CTCCGACG — higher, 1.71
- GGTCGGTC — higher, 0.625
- CTTCGGCG — higher, 0.962
- TTGCGGTG — higher, 0.648
- AGGCGGCG — lower, 0.154
- CTACGCTG — higher, 1.75
- CCCCGCTA — higher, 0.969
- GGTCGTTA — higher, 0.592
- GCGCGTGT — higher, 0.46
- CCGCGAGC — higher, 1.49
- TAACGTTG — higher, 0.511
- CAACGATT — higher, 0.678
- AATCGACC — lower, 0.395
- CTGCGCGA — higher, 1.63
- TCACGAGG — higher, 0.943
- GTACGTTT — higher, 1.27
- TCCCGTCG — higher, 2.02
- AGGCGCCC — higher, 1.44
- GATCGAGG — lower, 0.098
- ACACGTTT — higher, 1.18
- TCTCGAGC — higher, 1.31
- GGACGCTG — higher, 1.07
- AATCGGAT — lower, 0.219
- GTCCGGGG — higher, 0.917
- GATCGGGT — lower, 0.0694
- GGGCGTGT — lower, 0.349
- CGCCGTCT — higher, 1.54
- CTACGGTT — higher, 1.57
- GAGCGGCC — higher, 1.46
- CCCCGGTC — higher, 1.45
- CGCCGAGA — higher, 0.789
- CTTCGTCA — higher, 2.02
- ACACGGGC — higher, 1.61
- GCACGGAT — higher, 1.2
- GCTCGAAC — higher, 1.33
- CCCCGAGG — higher, 0.684
- ATCCGCAT — higher, 1.94
- TGGCGCTA — higher, 0.596
- AGTCGTGT — lower, 0.198
- AATCGGAA — lower, 0.35
- TAGCGGGG — lower, 0.116
- ACACGGTT — higher, 0.925
- GTCCGACC — higher, 2.06
- TCTCGTTC — higher, 0.763
- TCCCGACC — higher, 1.53
- CCACGGAG — higher, 0.478
- CAGCGTGT — lower, 0.191
- GACCGGCT — higher, 0.938
- GGTCGTCA — higher, 0.941
- CTACGTTA — higher, 1.92
- CGGCGGGT — lower, 0.357
- TCCCGCCA — higher, 1.51
- GCCCGTTG — higher, 0.508
- TTACGCAA — higher, 2.55
- TGGCGAAA — higher, 0.596
- TCGCGTCC — higher, 1.42
- TTGCGTCT — higher, 1.67
- TCACGATC — higher, 1.8
- TACCGTTT — lower, 0.414
- TAGCGCAC — higher, 0.675
- ATCCGCTA — higher, 1.78
- TATCGCCG — higher, 1.21
- CCCCGGGG — higher, 0.685
- GCACGTGA — higher, 0.545
- ATCCGCTG — higher, 1.62
- ACTCGTGA — higher, 0.87
- TAGCGTCG — higher, 0.759
- CTTCGCCG — higher, 1.97
- CACCGCTT — higher, 1.67
- GGCCGCGC — higher, 0.966
- AGTCGAAA — higher, 0.457
- GCCCGTCC — higher, 1.99
- CCCCGGGT — higher, 1.1
- ACGCGCCG — higher, 1.59
- CCGCGAAC — higher, 1.48
- GTACGACG — higher, 1.63
- TCCCGCAG — lower, 0.382
- TGTCGCCA — higher, 1.34
- GGCCGAGT — higher, 1.05
- GTACGCAT — higher, 2.11
- AGCCGGAT — lower, 0.42
- TGTCGACT — higher, 0.459
- GCGCGAGG — higher, 0.649
- AAGCGTAC — higher, 0.602
- CCTCGCTT — higher, 1.75
- CAACGGCG — higher, 0.65
- ACTCGGGG — lower, 0.426
- ATACGAGA — higher, 1.65
- AAACGTCT — higher, 1.02
- GTCCGCAT — higher, 1.37
- ATTCGCCC — higher, 2.29
- ACGCGTGG — lower, 0.288
- AAACGGAA — higher, 0.803
- TACCGACC — higher, 0.79
- TCTCGAGT — higher, 0.778
- AATCGAAA — higher, 0.447
- AATCGGGG — lower, 0.0633
- CCGCGTCA — higher, 1.37
- AGTCGCTT — higher, 1.03
- TAGCGAGA — higher, 0.51
- CGACGATT — higher, 0.644
- CGCCGGAC — higher, 0.958
- AATCGAAG — lower, 0.111
- TATCGCGG — lower, 0.258
- CAACGACC — higher, 0.804
- CAGCGTCA — higher, 0.574
- CGACGAAG — higher, 0.435
- TCTCGGCT — higher, 0.538
- CGCCGTGA — higher, 0.439
- GAACGTAG — higher, 0.707
- ACTCGTCA — higher, 1.77
- CGCCGCCG — higher, 1.35
- TTTCGATC — higher, 1.11
- GTTCGCGC — higher, 1.17
- TCACGGAC — higher, 1.78
- GTACGTTG — higher, 0.784
- ACTCGCGC — higher, 1.26
- CGACGACG — higher, 0.689
- TTGCGCAT — higher, 1.21
- CCCCGCTT — higher, 1.66
- TGACGTTG — higher, 0.495
- CCACGCGT — higher, 1.09
- AGGCGAAC — higher, 1.05
